# Source: PubChem BioAssay AID757 (NMMLSC, 2007)
# The whole screen tested about 190,000 compounds, of which about 520 (0.27%) were called active. Inconclusive means that the source gave no clear call. Such entries were picked first, then a sample of the others.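 The calls were made as follows: active = GTP binding activity at least 20 points away from the 100% control level, either lower or higher; inconclusive = compound flagged as likely green fluorescent, judged across all proteins; inactive = the rest.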
# Target: Ras-related C3 botulinum toxin substrate 1 (Homo sapiens) (UniProt P63000)
# Test: wildtype Rac1 GTP binding modulators, primary screen, biochemical, GST-Rac1 beads, flow cytometry, multiplex (AID 757)
# Conditions: fluorescent GTP binding, at 10 µM, actives lie on both sides, 0 = cold GTP competed, 100 = untreated
row,Structure (SMILES),GTP binding activity (% of control)
1,Cc1cccc(C2C3=C(Nc4[nH]n(-c5ccccc5)c(=O)c42)c2ccccc2C3=O)c1 (stereo not drawn),inconclusive: 91%
2,CN(C)/C=C(\C#N)C(=O)Nc1ccc(O)cc1F,inactive: 98%
3,COC(=O)c1cn(C(=O)c2cccc(C)c2)c2ccccc12,inconclusive: 94%
4,CCCCOC(=O)Nc1nnc(CC)s1,inconclusive: 105%
5,Cc1nonc1OCCNc1ccc([N+](=O)[O-])cc1[N+](=O)[O-],inconclusive: 294%
6,O=C(NC1=NCCS1)c1ccc(Cl)s1,inconclusive: 102%
7,CCCOc1ccc(N2C(=O)CC(N(CCc3ccc(OC)cc3)C(=O)/C=C/C(=O)O)C2=O)cc1 (stereo not drawn),inconclusive: 93%
8,Cc1cccn2c(=O)c(/C=N/O)c(N3CCOCC3)nc12,inconclusive: 98%
9,Cc1ccc(NC(=O)CN2C(=O)N/C(=C/c3ccc(C)o3)C2=O)cc1,inconclusive: 119%
10,CCCCOCC1CC(CC#CCN2CCCCC2)C(=O)O1 (stereo not drawn),inconclusive: 84%
11,CCOc1ccc(C(=S)N2CCOCC2)cc1OC,inconclusive: 103%
12,CC1Cc2nc(SCC(=O)Nc3ccc(F)cc3)n(C)c(=O)c2S1 (stereo not drawn),inconclusive: 93%
13,CCOc1ccc(S(=O)(=O)Nc2ccc(O)c(Sc3ncn[nH]3)c2)cc1,inactive: 101%
14,O=C(CCS(=O)NCc1ccccc1)NCc1ccccc1 (stereo not drawn),inactive: 111%
15,CC(=O)c1cccc(NC(=O)NCc2cccs2)c1,inconclusive: 95%
16,OC(c1ccccc1)c1nccn1Cc1ccccc1 (stereo not drawn),inconclusive: 103%
17,CN(CC(=O)O)S(=O)(=O)c1cccs1,inconclusive: 105%
18,CN1CCN(S(=O)(=O)c2cccc(C(=O)NCc3ccccc3Cl)c2)CC1,inactive: 99%
19,CCC(C(=O)Nc1sc(C(N)=O)c(C)c1C(=O)OC)c1ccccc1 (stereo not drawn),inconclusive: 88%
20,COc1cc2[nH]c(=S)nc(NCCC(C)C)c2cc1OC,active: 52%
21,N#Cc1cccc(NC(=O)c2ccccc2C(=O)O)c1,inconclusive: 101%
22,COc1cc(/C=C/C(=O)Nc2ccc3nc4n(c(=O)c3c2)CCCC4)cc(OC)c1OC,inconclusive: 71%
23,c1ccc(CNc2nc(-c3cccs3)nc3ccccc23)cc1,inconclusive: 103%
24,CC(=O)NC(Cc1ccc(F)c(F)c1)C(=O)NC1CCN(C(=O)c2ccc(C)cc2)CC1 (stereo not drawn),inactive: 103%

row,Structure (SMILES),GTP binding activity (% of control)
1,CC(C)(C)C(=O)N1CCC(O)(CS(=O)(=O)Cc2ccccc2)CC1,inactive: 100%
2,CC(/C=N/NC(=O)c1cccs1)=C\c1ccco1,inconclusive: 92%
3,O=C(Nc1sc2c(c1-c1nc3ccccc3[nH]1)CCCC2)C1CC1,inconclusive: 106%
4,COc1ccc(-c2cc(C(F)(F)F)nc(S(=O)(=O)CCCC(=O)Nc3cccnc3Cl)n2)cc1OC,inactive: 94%
5,CC(C)Oc1ccc(Cc2cnc(=S)[nH]c2N)cc1,inactive: 101%
6,CCOc1cc(/C=C2/NC(=O)NC2=O)cc([N+](=O)[O-])c1O,inconclusive: 67%
7,CC(Oc1ccc(Br)cc1Br)C(=O)NC1CCCC1 (stereo not drawn),inactive: 96%
8,CC1C(=O)CCCCCCCCCC2C1(N1CCOCC1)CS2(=O)=O (stereo not drawn),inactive: 108%
9,O=C(NCC1CCCO1)C1CCCN1C(=O)Nc1ccc(Cl)cc1 (stereo not drawn),inactive: 96%
10,O=c1c(-c2ccccc2)n[nH]c2ccccc12,inconclusive: 105%
11,C=CCC1(C#N)C(SC)=NC2=C(C(=O)CC(C)(C)C2)C1c1ccc(Br)cc1 (stereo not drawn),inactive: 106%
12,O=C(Oc1c(Br)cc(Br)c2cccnc12)N1CCCCC1,inconclusive: 95%
13,O=C(CNC(=S)N(Cc1ccccc1)Cc1ccccc1F)NCc1ccc(Cl)cc1,inconclusive: 96%
14,C#CCn1c(=NC(=O)c2sc3ccccc3c2Cl)sc2cc(S(N)(=O)=O)ccc21,inactive: 103%
15,O=C(NCCCNc1ccc(C(F)(F)F)cc1[N+](=O)[O-])c1ccc(Cl)cc1,inconclusive: 87%
16,Cc1cccc2cc(C#N)c(NCCNC(=S)NCCCN3CCOCC3)nc12,inconclusive: 96%
17,CCCOP(=O)(OCCC)C(Nc1ccc(C(=O)O)cc1)c1ccccc1 (stereo not drawn),inconclusive: 94%
18,S=C(Nc1ccc(N2CCOCC2)cc1)Nc1ccc2snnc2c1,inactive: 99%
19,Cc1cc(C(=O)CN2C(=O)C(=O)N(Cc3ccccc3)C2=O)c(C)n1-c1ccccc1F,inconclusive: 89%
20,CCCCN(C)C(=S)Nc1ccc(Oc2ccccc2)cc1,inactive: 104%
21,O=C(CN1CCC2(CC1)OCCO2)c1ccc2cc[nH]c2c1,inconclusive: 107%
22,Cc1noc(NS(=O)(=O)c2ccc(NC(=O)CSc3nnc4c(n3)[nH]c3ccccc34)cc2)c1C,inconclusive: 60%
23,O=C(c1cn2ccccc2n1)N1CCc2c([nH]c3ccccc23)C1c1ccccn1 (stereo not drawn),inactive: 98%
24,N#CC1=C(N)Oc2n[nH]c(-c3cccnc3)c2C1c1ccc([N+](=O)[O-])o1 (stereo not drawn),inconclusive: 96%

row,Structure (SMILES),GTP binding activity (% of control)
1,COC(=O)COc1ccc(S(=O)(=O)NCc2ccco2)cc1,inconclusive: 104%
2,CCCC1CC(C)(C(=O)Cn2[nH]c(=O)ccc2=O)OC1=O (stereo not drawn),inconclusive: 104%
3,CCCCN(CCCC)S(=O)(=O)c1c(C)[nH]c(=O)[nH]c1=O,inactive: 101%
4,Cc1cc(N=NC(=O)c2ccccc2O)c2ccccc2c1O,active: 74%
5,CCC(CC)C(=O)c1c[nH]c(C(=O)NCc2ccccn2)c1,inactive: 102%
6,O=C(c1cc(S(=O)(=O)N2CCCCC2)c(Cl)cc1N1CCOCC1)N1CCOCC1,inconclusive: 109%
7,Cc1ccc2c(c1)N(CC(=O)NC1CCC(C)CC1)C(=O)CO2 (stereo not drawn),inconclusive: 103%
8,COc1ccc(C(=O)Oc2coc(CSc3nnc(NC(=O)c4cccs4)s3)cc2=O)cc1,inconclusive: 92%
9,Cn1c(SCCOc2ccccc2F)nc2ccccc2c1=O,inconclusive: 79%
10,CNC(=O)NC(=O)CSc1nc(-c2cccs2)c(C#N)c(=O)[nH]1,inconclusive: 89%
11,COc1cccc(N2CCN(Cc3nc(N)nc(N4CCCc5ccccc54)n3)CC2)c1,inconclusive: 89%
12,Cc1nc(NC(=O)/C=C/c2ccc(Cl)cc2Cl)sc1C(=O)N(C)C,inconclusive: 77%
13,CCN(CC)c1ccc2c(c1)oc(=O)c1c(Cl)cc(=O)oc12,inactive: 87%
14,Cc1cc(NC(=O)c2ccccc2)ncc1NC(=O)c1ccco1,inconclusive: 105%
15,COc1ccc(S(=O)(=O)N2CCN(CC(=O)Nc3cc(C(F)(F)F)ccc3Cl)CC2)cc1,inconclusive: 36%
16,Cc1ccnc(Nc2nc(-c3c(C)nc4sccn34)cs2)c1,inconclusive: 83%
17,CC(=O)NCCCNc1ccc([N+](=O)[O-])cc1,inconclusive: 106%
18,Nc1[nH]nc2ncc3cc4ccccc4nc3c12,active: 68%
19,O=C(Cn1cnc([N+](=O)[O-])n1)N/N=C/c1cc(Cl)ccc1O,inconclusive: 91%
20,C/C(=N\NC(=O)CC1N=C(Cc2ccccc2)NNC1=O)c1ccc(Cl)cc1Cl (stereo not drawn),inconclusive: 135%
21,COc1ccccc1OCC(O)Cn1c(=N)n(CCN2CCCCC2)c2ccccc21 (stereo not drawn),inconclusive: 93%
22,O=C(Nc1nnc(-c2cccs2)o1)c1ccc(S(=O)(=O)N2CCOCC2)cc1,inconclusive: 91%
23,COc1ccc(S(=O)(=O)Nc2ccccc2C(=O)NCc2ccco2)cc1Br,inactive: 98%
24,O=C(O)c1cccc(Nc2ncnc3c2cnn3-c2ccccc2)c1,inconclusive: 97%

row,Structure (SMILES),GTP binding activity (% of control)
1,CCS(=O)(=O)N1N=C(c2cccc(NS(C)(=O)=O)c2)CC1c1ccccc1 (stereo not drawn),inconclusive: 114%
2,Cc1cccc(Nc2nc3c(S(=O)(=O)c4ccccc4)nnn3c3ccccc23)c1,inconclusive: 104%
3,COC(=O)C1SCC2C(=O)N(Cc3ccccc3)CC(=O)N21 (stereo not drawn),inactive: 95%
4,COc1ccc2nc(C)cc(SCC(=O)N/N=C/c3cccc4ccccc34)c2c1,inactive: 98%
5,COc1ccc(CCNC(=O)CSc2nnc(-c3cccc(F)c3)o2)cc1OC,inconclusive: 106%
6,CCOc1cc(CN2CCC(CO)(Cc3cccc(C(F)(F)F)c3)CC2)ccc1OC,inactive: 100%
7,COc1ccc(S(=O)(=O)N2CCCCC2)cc1NC(=O)c1ccc([N+](=O)[O-])o1,active: 74%
8,COc1cc(C(=O)N/N=C/c2ccc(OC)c(CN3CCN(c4ccc(F)cc4)CC3)c2)ccc1O,inconclusive: 76%
9,S=c1[nH]nc(-c2cccnc2)n1/N=C/C(Cl)=C\c1ccccc1,inconclusive: 90%
10,CCCC(=O)Nc1nc2c(c(=O)[nH]1)CCCC2,inconclusive: 105%
11,O=C(O)c1ccc2nc3c(nc2c1)-c1ccccc1C3=O,inconclusive: 77%
12,c1csc(CNCc2ccncc2)c1,inconclusive: 99%
13,CCOC(=O)C1CCN(C(=O)Nc2ccc(Cl)cc2)CC1,inconclusive: 112%
14,O=C(N/N=C/c1ccco1)c1cccc(N2Cc3ccccc3C2)c1,inconclusive: 89%
15,COc1ccc(C(=O)CSc2ncn[nH]2)cc1OC,inconclusive: 110%
16,NC(=O)c1sc2nc3c(c(-c4ccco4)c2c1N)CCC3,inconclusive: 85%
17,COc1cc(C(C(=O)NCc2ccccc2)N(Cc2ccco2)C(=O)c2cnccn2)cc(OC)c1OC (stereo not drawn),inactive: 106%
18,COc1ccc(/C=C2\N=C(SC)N(c3ccccc3OC)C2=O)cc1,inactive: 103%
19,Cc1cccc(C(=O)NC(=S)NNC(=O)COc2c(C)cccc2C)c1,inconclusive: 88%
20,CCOc1ccccc1N(CC(=O)N/N=C(\C)c1cccc(Br)c1)S(C)(=O)=O,inconclusive: 97%
21,COc1ccc2c(c1)c1nnc(SCC(=O)N3CCCCC3C)nc1n2C (stereo not drawn),inconclusive: 87%
